{"source": "the supplement of paper PMC3334620", "note": "In all, about 33,000 sequences were measured (“E-score (-0.5 to 0.5)”: median about -0.043, highest 2% from about 0.37 on). Some of the results follow.", "data": [{"biological_target": "T1, Upc2 (UniProt Q12151)", "T1 sequence": "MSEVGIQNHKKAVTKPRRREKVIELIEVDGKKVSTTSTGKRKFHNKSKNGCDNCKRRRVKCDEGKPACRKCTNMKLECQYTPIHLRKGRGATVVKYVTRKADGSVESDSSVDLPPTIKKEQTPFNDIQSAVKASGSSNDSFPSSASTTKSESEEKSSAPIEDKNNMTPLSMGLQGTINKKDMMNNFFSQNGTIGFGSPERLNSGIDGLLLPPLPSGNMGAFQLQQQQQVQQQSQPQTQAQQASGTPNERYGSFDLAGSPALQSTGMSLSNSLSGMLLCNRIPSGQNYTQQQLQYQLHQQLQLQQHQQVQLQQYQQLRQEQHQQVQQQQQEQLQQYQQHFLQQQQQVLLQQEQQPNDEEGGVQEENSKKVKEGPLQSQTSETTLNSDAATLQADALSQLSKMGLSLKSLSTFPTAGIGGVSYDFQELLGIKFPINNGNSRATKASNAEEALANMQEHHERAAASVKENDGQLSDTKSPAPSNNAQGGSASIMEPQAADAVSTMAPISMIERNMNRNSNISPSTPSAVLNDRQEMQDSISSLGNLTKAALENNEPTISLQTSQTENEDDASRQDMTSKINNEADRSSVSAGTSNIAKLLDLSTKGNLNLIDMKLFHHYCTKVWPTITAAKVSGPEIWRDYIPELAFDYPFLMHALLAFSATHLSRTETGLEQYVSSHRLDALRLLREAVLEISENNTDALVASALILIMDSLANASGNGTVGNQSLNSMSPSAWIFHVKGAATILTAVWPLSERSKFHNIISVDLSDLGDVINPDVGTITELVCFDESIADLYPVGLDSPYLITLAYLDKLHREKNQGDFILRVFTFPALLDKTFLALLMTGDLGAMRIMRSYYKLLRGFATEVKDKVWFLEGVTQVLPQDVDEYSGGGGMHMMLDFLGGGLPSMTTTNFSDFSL", "assay": "PBM E-score (8-mer binding enrichment) (E-score (-0.5 to 0.5)); higher = stronger / more preferred TF binding; most listed sequences are background and not binding sites", "details": "protein concentration: 200 nM; construct: GST-full length", "summary_of_the_method": "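Yeast transcription factors carrying a GST tag, as full-length proteins or DNA-binding domains, were produced by PURExpress in vitro transcription/translation. About 100-200 nM protein was applied to universal all-10-mer Agilent arrays, double-stranded by primer extension on fresh or once-stripped slides. Bound protein was detected with fluorescent anti-GST, and scans were normalised with masliner. The Universal PBM Analysis Suite gave each ungapped eight-base word, pooled with its reverse complement, an E-score, a modified Wilcoxon-Mann-Whitney statistic.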", "values": [{"sequence": "CACCGAAG", "PBM E-score": -0.0326}, {"sequence": "ATGATCCC", "PBM E-score": -0.172}, {"sequence": "AACGTCAC", "PBM E-score": -0.0182}, {"sequence": "GGGCGCAA", "PBM E-score": -0.0461}, {"sequence": "GGATTATA", "PBM E-score": 0.102}, {"sequence": "AGTTCGAG", "PBM E-score": 0.00075}, {"sequence": "AAATTCAC", "PBM E-score": 0.00055}, {"sequence": "CAACGACA", "PBM E-score": 0.313}, {"sequence": "CCTTAGTA", "PBM E-score": -0.179}, {"sequence": "AACTCCGC", "PBM E-score": -0.232}, {"sequence": "CAGACCTA", "PBM E-score": 0.0156}, {"sequence": "CGCAAGGC", "PBM E-score": -0.177}, {"sequence": "ATCCTACA", "PBM E-score": -0.0956}, {"sequence": "CGGAGCAC", "PBM E-score": -0.0154}, {"sequence": "ATCATGCG", "PBM E-score": -0.0346}, {"sequence": "ACGGGGAG", "PBM E-score": 0.0563}, {"sequence": "CGTAACAG", "PBM E-score": 0.303}, {"sequence": "ATTCAAAG", "PBM E-score": -0.0977}, {"sequence": "CGCGGGTC", "PBM E-score": 0.099}, {"sequence": "GACGAATC", "PBM E-score": 0.138}, {"sequence": "AGTAACAG", "PBM E-score": -0.121}, {"sequence": "AGATACCC", "PBM E-score": 0.0316}, {"sequence": "CGCTCATA", "PBM E-score": 0.153}, {"sequence": "AAGCCCGG", "PBM E-score": -0.0712}, {"sequence": "ACATGAGC", "PBM E-score": -0.14}, {"sequence": "GAACGATA", "PBM E-score": 0.402}, {"sequence": "CAGACCCC", "PBM E-score": -0.37}, {"sequence": "ACCTCTGG", "PBM E-score": -0.0874}, {"sequence": "AAACCCTA", "PBM E-score": -0.259}, {"sequence": "CTCGAAAA", "PBM E-score": -0.0106}, {"sequence": "CAAAAACG", "PBM E-score": 0.152}, {"sequence": "CGGGGGCA", "PBM E-score": -0.247}, {"sequence": "CAACCAAG", "PBM E-score": -0.167}, {"sequence": "CACCGCCA", "PBM E-score": -0.099}, {"sequence": "GCGTCGCC", "PBM E-score": -0.128}, {"sequence": "CAATTGCC", "PBM E-score": -0.132}, {"sequence": "ATGCCCAC", "PBM E-score": -0.0923}, {"sequence": "CGGTTCTA", "PBM E-score": -0.0216}, {"sequence": "CTCCAACC", "PBM E-score": -0.115}, {"sequence": "TAGAGAGA", "PBM E-score": -0.13}, {"sequence": "CCCCAGGG", "PBM E-score": -0.139}, {"sequence": "ACAAATCA", "PBM E-score": 0.00175}, {"sequence": "AGAGATGG", "PBM E-score": -0.165}, {"sequence": "GTGATAAC", "PBM E-score": -0.0723}, {"sequence": "GGATCACA", "PBM E-score": -0.106}, {"sequence": "ACGCAGGG", "PBM E-score": -0.0657}, {"sequence": "AAGCGGGG", "PBM E-score": -0.0605}, {"sequence": "CGTTTAAG", "PBM E-score": 0.468}, {"sequence": "AGCTCAGC", "PBM E-score": -0.183}, {"sequence": "AACCATCG", "PBM E-score": 0.245}, {"sequence": "AAATTTAC", "PBM E-score": 0.209}, {"sequence": "GAAAAACC", "PBM E-score": -0.037}, {"sequence": "CTCGGTGC", "PBM E-score": -0.101}, {"sequence": "CGCACTGC", "PBM E-score": -0.0508}, {"sequence": "AAATAGGG", "PBM E-score": -0.0639}, {"sequence": "GGCACTTA", "PBM E-score": -0.127}, {"sequence": "CAGTTAGG", "PBM E-score": -0.123}, {"sequence": "AGTCTTAG", "PBM E-score": -0.185}, {"sequence": "CACAGCTG", "PBM E-score": -0.187}, {"sequence": "CTCACGGC", "PBM E-score": -0.372}, {"sequence": "ATTGTACC", "PBM E-score": 0.115}, {"sequence": "GGTACCGA", "PBM E-score": 0.0871}, {"sequence": "TACGCCGA", "PBM E-score": 0.258}, {"sequence": "CCGGCCCC", "PBM E-score": 0.00831}, {"sequence": "GTTATACA", "PBM E-score": 0.0778}, {"sequence": "ACCTTGAG", "PBM E-score": -0.164}, {"sequence": "GGGTAAAC", "PBM E-score": 0.233}, {"sequence": "GAACAGTA", "PBM E-score": 0.101}, {"sequence": "ACCAGGGT", "PBM E-score": -0.0954}, {"sequence": "CAGAATGG", "PBM E-score": -0.0946}, {"sequence": "AAATGTGT", "PBM E-score": -0.0399}, {"sequence": "AGACGTCT", "PBM E-score": -0.122}, {"sequence": "AGCGAATA", "PBM E-score": 0.123}, {"sequence": "TCAATGCA", "PBM E-score": -0.208}, {"sequence": "CTGATGTA", "PBM E-score": -0.156}, {"sequence": "AACTGTAC", "PBM E-score": 0.324}, {"sequence": "GTGAATCA", "PBM E-score": -0.315}, {"sequence": "GCGCACAA", "PBM E-score": 0.159}, {"sequence": "AAGAATAT", "PBM E-score": 0.0235}, {"sequence": "CTAGTTGC", "PBM E-score": -0.0741}, {"sequence": "ACAGTGCG", "PBM E-score": -0.00565}, {"sequence": "GAGCGATA", "PBM E-score": 0.218}, {"sequence": "ACTCCTCG", "PBM E-score": 0.282}, {"sequence": "ATAATCGG", "PBM E-score": 0.0801}, {"sequence": "ATACCATC", "PBM E-score": -0.0205}, {"sequence": "CCTTGTTA", "PBM E-score": -0.0682}]}]}
